Data on one molecule can be found in PubChem BioAssay (NCI).

Structures are written as SMILES. A structure can be active in one record and inactive in another.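 Note: values are percent growth. 100 is the growth of untreated cells, values between 100 and 0 indicate rising inhibition; between -100 and 0 indicates cell death.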 A number of entries come with more than one value. The other results are left out here. How the source made its calls: active means growth percent below 10; inactive means the rest. An entry can have further records. This drug was run again and again over the years, at the concentration stated with the values; each value is one run. Additions like (4×) count equal records among those shown.

Experiment in all cases: NCI-60 one-dose screen, 48 h (100 = growth as untreated, 0 = no growth, -100 = all killed)
In assay [1] the test system is U251 CNS. The conditions noted are these: 2.5 mM.
The subject of assay [2] is PC-3 prostate. Conditions: 2.5 mM.
Assay [3] deals with SK-MEL-5 melanoma. The conditions noted are these: 2.5 mM; runs of 1991.

`O=c1[nH]cc(F)c(=O)[nH]1`: the growth entry in assay [1] (runs of 1995) was “inactive: 29.7, 18.8, 30.2, 21.1 (2×), 16.8, 28.9, 17.5, 20.3, 26.7, 15.2, 20, 33.7, 23, 24.2, 16.2, 26.8 (2×), 20.9, 27.8, 25.2, 25.6, 26.2, 23.7, 27.3, 25.3, 22.1, 19.7, 38.6, 25, 30.5, 19.6, 22.5, 30.3, 32.4, 17, 30.9% and active: 8.7%, 2.3%”; in assay [1] (runs of 1996) it was “inactive: 30.3, 21.8, 22.4 (3×), 25.9, 21, 26.3 (2×), 19.5, 27 (2×), 29.4, 20.7 (2×), 25.8, 24, 27.2, 27.7, 22.6, 17.2 (2×), 16.7, 21.1, 38.5, 25.5, 14.2, 35.5, 23.2, 33.3, 39.7, 26.1, 22.8, 19.2, 31.7, 21.6, 25, 12.1, 22.7, 24.7, 34.5, 27.9, 26.4 (2×), 44.5, 27.5, 23.3, 34.1, 24.1, 31.6% (2×) and active: 5.02%, -44.4%”; in assay [1] (runs of 1997), “active: -22.8, -100, -10.4, 9.02, -8.28, 1.51% and inactive: 33.5, 21.3, 90.8, 22, 20.5, 26.7 (2×), 20.8, 23.9, 24.1, 13.8, 23.7, 18.8, 18.2, 14.1, 17.6, 15.7 (2×), 32.3, 17.8 (2×), 15.3, 22.6 (2×), 12.7, 17.1, 25.2, 18.5, 17, 40.9, 17.9, 27.7, 27.4, 21.5, 20.1, 30.3, 25.4, 23.1, 25.5%”; in assay [1] (runs of 1998) it was “inactive: 21.3, 29.9, 26.3, 34.8, 53.4, 25.5, 30.9, 15.4, 18.2, 35.7, 12.9, 20.8, 18.1, 32.2, 33.8, 20.4, 13.8, 22.7, 27.5, 25.2, 17.7, 11.4, 22.3% and active: 4.66%”; in assay [1] (runs of 1999) it was “active: 8.09, -78.7, 0.495, -66.2, -47.5, 0.603, -50.5, -53.1, -100, -76.9% and inactive: 23.6%, 14.6% (2×), 14.3%”; in assay [1] (runs of 2000) it was “active: -35, 0.217, -31.2, -59.6%”. The growth result in assay [2] (runs of 1993) is “inactive: 18.5 (2×), 25.8 (2×), 21, 17, 14.4, 10.2, 20.1, 16.1, 28.8 (2×), 16.4, 19.2, 17.7, 17.3, 25.2, 10.3, 23.3, 22.3, 26.7, 22.6, 38.3, 35.4, 71.2, 40.2, 14.5, 26.2, 38.8, 25% and active: 8.59, -4.57, 8.27, 4.04, 6.8, 9.48, 4.05, 9.67, 7.08, -2.35, -15, 8.84, -27.3, 3.1, -3.85, 7.01, -41.3%”; in assay [2] (runs of 1994), “inactive: 30.2, 21.2, 41.8, 14.3, 35.1, 37.6, 10, 26.9, 27.6, 35.9, 16, 67.2, 11.2, 26.8, 46.8, 25.9, 39.2, 17.1, 22, 18.7, 16.7, 27.1, 17.2, 12.5, 42.5, 23.4, 17.4, 11, 25.4% and active: 4.44, 4.76, 6.45, 3.33, 9.46%”; in assay [2] (runs of 1995), “inactive: 32.1, 15.6 (2×), 20.6 (2×), 21.1, 25.9, 11.4, 32.9, 15.2, 18.5, 21.8, 23.5, 14.5, 18.7, 15.5, 39.3, 22.4, 24.6, 34.6, 10.2, 13.4, 25.1, 11.1, 23.6, 22.3, 22.1, 13.8, 13.2, 24.8% and active: -5, -28.1, 2.97, -16.5, -3.56, -34.3, -25.2, -26.3, 7.52, 3.05%”; in assay [2] (runs of 1996) it was “inactive: 19.6 (2×), 26.6, 23.5, 30.4, 18.4 (2×), 18.2, 12.8, 34.9, 30.6, 26, 21.6, 20.7, 32.5, 27.8, 32.8, 14.4, 14.2, 35.2, 21.2, 23.6, 36.2, 36, 27.7 (2×), 22.2, 28.3, 25, 19.5, 15.2, 15.4, 37.7, 32.3, 22.1, 30.7, 10.7, 21.7, 18.3, 45, 43, 24.6, 11.2, 44.1, 33.9, 30.3% and active: 0.982, 9.5, -3.75, 7.61, -28.6, 5.81, 0.167, 9.36, 8.98, 6.8, 3.97, 6.96%”; in assay [2] (runs of 1997), “inactive: 30.2 (2×), 31.9, 18.2, 28.7, 17, 29.2, 24.6, 18.1, 52.9, 18.7, 25.3, 28.4, 13.8, 26.9, 24.7, 66.5, 37.2, 30.1 (2×), 10.7, 34.4, 21.8, 15 (2×), 16.4, 26.6, 40.3, 20.9, 11.7, 37.7, 26.1, 18, 20.2, 22.7, 25.9, 21.6, 26, 28.8, 25, 26.4, 29.5, 25.7, 31, 24.1% and active: -7.72%”; in assay [2] (runs of 1998), “inactive: 38.2, 18.7, 41.7, 26.5, 30.2, 36.5, 18.2, 40.4, 17.7, 32.8, 50.5, 16, 22.4, 21.3, 46.5, 42.3, 34.5, 37.8, 39.3, 43.5, 26.2% and active: 0.343%, 7.37%”. Besides, the growth result was “inactive: 46.3, 36, 29.6, 12.9% and active: -20.3, -80, -9.34, 0.516, -20.7, 0.553, 1.97, -27.9, -21.5, -43.5, -33.4, -42.9%” in assay [2] (runs of 1999); “active: -43.3, 0.112, -0.368, -29.2%” in assay [2] (runs of 2000); “inactive: 10% and active: -0.716, -44.5, -28.9, -2.02, 3.11, -82.3, -53, -57.2, -45.3, -83, -4.96, -28.7, -14.2, 6.3, -27.1, -23%” in assay [3].
